Source: PMC11661359, “Structure guided functional analysis of the S. cerevisiae Mre11 complex” (Research Square, 2024)
No constants are given. Whether binding was seen depends on the method and setting. Some binding calls cover weakened binding; strength is not graded here.

Key:
[1] = target: S. cerevisiae Rad50-E1235Q (R^EQ of the purified MR^EQ complex) (S. cerevisiae) (UniProt P12753); assay: cryo-EM structure; Apo MR^EQ complex, without dsDNA (see Fig. S2); both purified
[2] = target: S. cerevisiae Rad50-E1235Q (R^EQ of the purified MR^EQ complex) (S. cerevisiae) (UniProt P12753); assay: cryo-EM structure; purified MR^EQ incubated with a 83-mer dsDNA in the presence of ATP, MgCl2 and MnCl2; 3.2 Å; both purified

B1: S. cerevisiae Rad50-E1235Q (R^EQ of the purified MR^EQ complex) (enzyme, UniProt P12753 1-1312)
chain: MSAIYKLSIQGIRSFDSNDRETIEFGKPLTLIVGMNGSGKTTIIECLKYATTGDLPPNSKGGVFIHDPKITGEKDIRAQVKLAFTSANGLNMIVTRNIQLLMKKTTTTFKTLEGQLVAINNSGDRSTLSTRSLELDAQVPLYLGVPKAILEYVIFCHQEDSLWPLSEPSNLKKKFDEIFQAMKFTKALDNLKSIKKDMSVDIKLLKQSVEHLKLDKDRSKAMKLNIHQLQTKIDQYNEEVSEIESQLNEITEKSDKLFKSNQDFQKILSKVENLKNTKLSISDQVKRLSNSIDILDLSKPDLQNLLANFSKVLMDKNNQLRDLETDISSLKDRQSSLQSLSNSLIRRQGELEAGKETYEKNRNHLSSLKEAFQHKFQGLSNIENSDMAQVNHEMSQFKAFISQDLTDTIDQFAKDIQLKETNLSDLIKSITVDSQNLEYNKKDRSKLIHDSEELAEKLKSFKSLSTQDSLNHELENLKTYKEKLQSWESENIIPKLNQKIEEKNNEMIILENQIEKFQDRIMKTNQQADLYAKLGLIKKSINTKLDELQKITEKLQNDSRIRQVFPLTQEFQRADLEMDFQKLFINMQKNIAINNKKMHELDRRYTNALYNLNTIEKDLQDNQKSKEKVIQLLSENLPEDCTIDEYNDVLEETELSYKTALENLKMHQTTLEFNRKALEIAERDSCCYLCSRKFENESFKSKLLQELKTKTDANFEKTLKDTVQNEKEYLHSLRLLEKHIITLNSINEKIDNSQKCLEKAKEETKTSKSKLDELEVDSTKLKDEKELAESEIRPLIEKFTYLEKELKDLENSSKTISEELSIYNTSEDGIQTVDELRDQQRKMNDSLRELRKTISDLQMEKDEKVRENSRMINLIKEKELTVSEIESSLTQKQNIDDSIRSKRENINDIDSRVKELEARIISLKNKKDEAQSVLDKVKNERDIQVRNKQKTVADINRLIDRFQTIYNEVVDFEAKGFDELQTTIKELELNKAQMLELKEQLDLKSNEVNEEKRKLADSNNEEKNLKQNLELIELKSQLQHIESEISRLDVQNAEAERDKYQEESLRLRTRFEKLSSENAGKLGEMKQLQNQIDSLTHQLRTDYKDIEKNYHKEWVELQTRSFVTDDIDVYSKALDSAIMKYHGLKMQDINRIIDELWKRTYSGTDIDTIKIRSDEVSSTVKGKSYNYRVVMYKQDVELDMRGRCSAGQKVLASIIIRLALSETFGANCGVIALDQPTTNLDEENIESLAKSLHNIINMRRHQKNFQLIVITHDEKFLGHMNAAAFTDHFFKVKRDDRQKSQIEWVDINRVTY
binding [1]: binds | binding [2]: binds
